Results as given in the supplement of paper PMC8728848.
The list shows a part of the results.

Legend:
Experiment in all cases: glycan array binding signal (z-score within array); higher = stronger binding
Conditions in all cases: glycan notation: IUPAC condensed, linker removed
[1] = target: Fuc(a1-2)Gal(b1-4)[Fuc(a1-3)]GlcNAc
Summary of the method: (§1)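 The Consortium for Functional Glycomics database supplied 3228 glycan arrays, of which those lacking an available protein sequence were dropped. The binding signal, a within-array Z-score, was averaged across arrays of the same protein sequence and across linkers. Negative scores can be read as non-binding.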

[2] = target: Fuc(a1-2)Gal(b1-4)[Fuc(a1-3)]GlcNAc(b1-2)Man(a1-3)[Fuc(a1-2)Gal(b1-4)[Fuc(a1-3)]GlcNAc(b1-2)Man(a1-6)]Man(b1-4)GlcNAc(b1-4)[Fuc(a1-6)]GlcNAc
Summary of the method: as §1

[3] = target: Fuc(a1-2)Gal(b1-4)[Fuc(a1-3)]GlcNAc(b1-2)[Fuc(a1-2)Gal(b1-4)[Fuc(a1-3)]GlcNAc(b1-4)]Man(a1-3)[Fuc(a1-2)Gal(b1-4)[Fuc(a1-3)]GlcNAc(b1-2)Man(a1-6)]Man(b1-4)GlcNAc(b1-4)GlcNAc
Summary of the method: as §1

[4] = target: Fuc(a1-2)Gal(b1-4)[Fuc(a1-3)]GlcNAc(b1-3)Gal(b1-4)[Fuc(a1-3)]GlcNAc
Summary of the method: as §1

[5] = target: Fuc(a1-2)Gal(b1-4)[Fuc(a1-3)]GlcNAc(b1-3)Gal(b1-4)[Fuc(a1-3)]GlcNAc(b1-3)Gal(b1-4)[Fuc(a1-3)]GlcNAc
Summary of the method: as §1

[6] = target: Fuc(a1-2)Gal(b1-4)[Fuc(a1-3)]GlcNAc(b1-3)GalNAc
Summary of the method: as §1

[7] = target: Fuc(a1-2)Gal(b1-4)[Fuc(a1-3)]GlcNAc(b1-3)[Neu5Ac(a2-6)Gal(b1-4)GlcNAc(b1-6)]Gal(b1-4)Glc
Summary of the method: as §1

[8] = target: Fuc(a1-2)Gal3S(b1-4)GlcNAc
Summary of the method: as §1

[9] = target: Fuc(a1-2)Gal6S(b1-3)GlcNAc
Summary of the method: as §1

[10] = target: Fuc(a1-2)Gal6S(b1-3)GlcNAc6S
Summary of the method: as §1

Fuc(a1-2)Gal6S(b1-4)Glc = target: Fuc(a1-2)Gal6S(b1-4)Glc
Summary of the method: as §1

[11] = target: Fuc(a1-2)Gal6S(b1-4)Glc6S
Summary of the method: as §1

Fuc(a1-2)[Gal(a1-3)]Gal = target: Fuc(a1-2)[Gal(a1-3)]Gal
Summary of the method: as §1

[12] = target: Fuc(a1-2)[Gal(a1-3)]Gal(b1-3)GalNAc
Summary of the method: as §1

[13] = target: Fuc(a1-2)[Gal(a1-3)]Gal(b1-3)GalNAc(b1-3)Gal(a1-4)Gal(b1-4)Glc
Summary of the method: as §1

[14] = target: Fuc(a1-2)[Gal(a1-3)]Gal(b1-3)GlcNAc
Summary of the method: as §1

[15] = target: Fuc(a1-2)[Gal(a1-3)]Gal(b1-3)GlcNAc(b1-2)Man(a1-3)[Fuc(a1-2)[Gal(a1-3)]Gal(b1-3)GlcNAc(b1-2)Man(a1-6)]Man(b1-4)GlcNAc(b1-4)GlcNAc
Summary of the method: as §1

[16] = target: Fuc(a1-2)[Gal(a1-3)]Gal(b1-3)GlcNAc(b1-2)Man(a1-3)[Fuc(a1-2)[Gal(a1-3)]Gal(b1-3)GlcNAc(b1-2)Man(a1-6)]Man(b1-4)GlcNAc(b1-4)[Fuc(a1-6)]GlcNAc
Summary of the method: as §1

[17] = target: Fuc(a1-2)[Gal(a1-3)]Gal(b1-3)GlcNAc(b1-3)GalNAc
Summary of the method: as §1

[18] = target: Fuc(a1-2)[Gal(a1-3)]Gal(b1-3)GlcNAc(b1-6)GalNAc
Summary of the method: as §1

[19] = target: Fuc(a1-2)[Gal(a1-3)]Gal(b1-4)Glc
Summary of the method: as §1

[20] = target: Fuc(a1-2)[Gal(a1-3)]Gal(b1-4)GlcNAc
Summary of the method: as §1

[21] = target: Fuc(a1-2)[Gal(a1-3)]Gal(b1-4)GlcNAc(b1-2)Man
Summary of the method: as §1

[22] = target: Fuc(a1-2)[Gal(a1-3)]Gal(b1-4)GlcNAc(b1-2)Man(a1-3)[Fuc(a1-2)[Gal(a1-3)]Gal(b1-4)GlcNAc(b1-2)Man(a1-6)]Man(b1-4)GlcNAc(b1-4)GlcNAc
Summary of the method: as §1

[23] = target: Fuc(a1-2)[Gal(a1-3)]Gal(b1-4)GlcNAc(b1-2)Man(a1-3)[Fuc(a1-2)[Gal(a1-3)]Gal(b1-4)GlcNAc(b1-2)Man(a1-6)]Man(b1-4)GlcNAc(b1-4)[Fuc(a1-6)]GlcNAc
Summary of the method: as §1

[24] = target: Fuc(a1-2)[Gal(a1-3)]Gal(b1-4)GlcNAc(b1-3)GalNAc
Summary of the method: as §1

[25] = target: Fuc(a1-2)[Gal(a1-3)]Gal(b1-4)GlcNAc(b1-3)[Fuc(a1-2)[Gal(a1-3)]Gal(b1-4)GlcNAc(b1-6)]GalNAc
Summary of the method: as §1

[26] = target: Fuc(a1-2)[Gal(a1-3)]Gal(b1-4)GlcNAc(b1-6)GalNAc
Summary of the method: as §1

[27] = target: Fuc(a1-2)[Gal(a1-3)]Gal(b1-4)[Fuc(a1-3)]Glc
Summary of the method: as §1

[28] = target: Fuc(a1-2)[Gal(a1-3)]Gal(b1-4)[Fuc(a1-3)]GlcNAc
Summary of the method: as §1

[29] = target: Fuc(a1-2)[Gal(a1-3)]Gal(b1-4)[Fuc(a1-3)]GlcNAc(b1-3)GalNAc
Summary of the method: as §1

[30] = target: Fuc(a1-2)[Gal(a1-4)]Gal(b1-4)GlcNAc
Summary of the method: as §1

[31] = target: Fuc(a1-2)[GalNAc(a1-3)]Gal
Summary of the method: as §1

[32] = target: Fuc(a1-2)[GalNAc(a1-3)]Gal(b1-3)GalNAc(a1-3)[Fuc(a1-2)]Gal(b1-4)GlcNAc
Summary of the method: as §1

[33] = target: Fuc(a1-2)[GalNAc(a1-3)]Gal(b1-3)GalNAc(b1-3)Gal(a1-4)Gal(b1-4)Glc
Summary of the method: as §1

[34] = target: Fuc(a1-2)[GalNAc(a1-3)]Gal(b1-3)GlcNAc
Summary of the method: as §1

[35] = target: Fuc(a1-2)[GalNAc(a1-3)]Gal(b1-3)GlcNAc(b1-2)Man(a1-3)[Fuc(a1-2)[GalNAc(a1-3)]Gal(b1-3)GlcNAc(b1-2)Man(a1-6)]Man(b1-4)GlcNAc(b1-4)GlcNAc
Summary of the method: as §1

[36] = target: Fuc(a1-2)[GalNAc(a1-3)]Gal(b1-3)GlcNAc(b1-2)Man(a1-3)[Fuc(a1-2)[GalNAc(a1-3)]Gal(b1-3)GlcNAc(b1-2)Man(a1-6)]Man(b1-4)GlcNAc(b1-4)[Fuc(a1-6)]GlcNAc
Summary of the method: as §1

B1: AT5G01260(PC)(40) (Arabidopsis thaliana), Q9LFB0 (protein)
chain: MIGIGRTLTSSSPSKIILEDLPPGIYRYGTEIFTSVPRKTFHHIKFLRLDSAQSSRILKPVPLRSSSIKDSQVNVEDEEIEASNKTVRVRFQLRKECVFGEHFFIVGDDPVFGGLWDPETALPLNWSDGNVWTVDLDLPVGRLVEFKLLLKAQTGEILWQPGPNRALETWETNKTIRICEDWDNADLQMMIEEDFVPYTNISSIGSEDEDEVLGSVQQNSSVVAVENAGYVSDESAQNSSFSIQSEKTMEPSNGALTAREVIKEAMFTEEESPVLVPGLIPLSDLDNEQVEVINEGKAETFPEVDKKQEPKAERNKKAKVKAISLFEKSEQEAVKSVEQRQYNAVEEEQQRLETEPLGTPDVLFENDIQWGRRTLYKLLSNFRLF
[1]
  glycan array binding signal (z-score): -0.291
[2]
  glycan array binding signal (z-score): -0.616
[3]
  glycan array binding signal (z-score): 0.175
[4]
  glycan array binding signal (z-score): -0.004
[5]
  glycan array binding signal (z-score): -0.725
[6]
  glycan array binding signal (z-score): 0.378
[7]
  glycan array binding signal (z-score): -0.201
[8]
  glycan array binding signal (z-score): -0.755
[9]
  glycan array binding signal (z-score): -0.048
[10]
  glycan array binding signal (z-score): 0.127
Fuc(a1-2)Gal6S(b1-4)Glc
  glycan array binding signal (z-score): -0.151
[11]
  glycan array binding signal (z-score): -0.355
Fuc(a1-2)[Gal(a1-3)]Gal
  glycan array binding signal (z-score): 0.732
[12]
  glycan array binding signal (z-score): -0.341
[13]
  glycan array binding signal (z-score): 0.036
[14]
  glycan array binding signal (z-score): 0.172
[15]
  glycan array binding signal (z-score): -0.244
[16]
  glycan array binding signal (z-score): -0.156
[17]
  glycan array binding signal (z-score): -0.485
[18]
  glycan array binding signal (z-score): 0.179
[19]
  glycan array binding signal (z-score): -0.063
[20]
  glycan array binding signal (z-score): -0.786
[21]
  glycan array binding signal (z-score): -0.675
[22]
  glycan array binding signal (z-score): -0.143
[23]
  glycan array binding signal (z-score): 0.087
[24]
  glycan array binding signal (z-score): 0.117
[25]
  glycan array binding signal (z-score): -0.106
[26]
  glycan array binding signal (z-score): -0.256
[27]
  glycan array binding signal (z-score): 0.81
[28]
  glycan array binding signal (z-score): -0.013
[29]
  glycan array binding signal (z-score): 0.129
[30]
  glycan array binding signal (z-score): 0.021
[31]
  glycan array binding signal (z-score): -0.156
[32]
  glycan array binding signal (z-score): -0.43
[33]
  glycan array binding signal (z-score): -0.657
[34]
  glycan array binding signal (z-score): -0.735
[35]
  glycan array binding signal (z-score): -0.051
[36]
  glycan array binding signal (z-score): 0.158
